# In PubChem BioAssay AID1745845 (National Center for Advancing Translational Sciences (NCATS), 2022):
# Hit rate of the full screen: of about 360,000 compounds, about 2,600 (0.72%) were called active. Inconclusive results, whose numbers are uncertain, are shown with a selection of clear calls. The call rests on the fitted dose curve; in most records, active means well fitted inhibition curve with a large enough effect; inconclusive means small, poorly fitted or top-dose-only effect; inactive means no such curve, though single readings can be large or run the other way. A potency beside an inconclusive call is a rough fit, not a confirmed value.
# Assay: Primary qHTS for Inhibitors of ATXN expression; further: nearly all actives have a fitted effect of over 55% in size
# Conditions: HEK-293 ATXN2-luciferase reporter, luminescence, 24 h; activity change, negative = inhibition: at 57 µM (top of the series)
# In short: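 ATXN2-luciferase reporter cells (luciferase flanked by upstream and downstream ATXN2 gene portions) were treated 24 h at 37 °C with compounds at up to 57 uM. SteadyGlo luminescence gave expression; GF-AFC fluorescence gave viability.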
# On the % scale 0 is the no-effect control and ±100 the full control effect; potency means the concentration at half of the fitted maximal effect; tags describe the fitted curve by direction and shape.
Compound,Potency,"activity change, negative = inhibition"
CCCn1c(/C=N/Nc2nc3ccccc3[nH]2)nc2ccccc21,"inconclusive: 7.08 µM [inhibitor, single point]",–
Cc1ccc(-c2nc3sc(CCNC(=O)c4ccc(Br)o4)c(C)n3n2)cc1,"inconclusive: 39.8 µM [inhibitor, single point]",–
Cc1cccnc1NCc1ccc(O)c2ncccc12,"inconclusive: 35.5 µM [inhibitor, partial curve, poor fit]",–
COc1ccc(N(C)C(=O)CCn2cnc3onc(-c4ccc(F)cc4)c3c2=O)c(OC)c1,"inconclusive: 14.1 µM [inhibitor, partial curve, poor fit]",–
O=C(NCC1CCN(Cc2cccc(Cl)c2)CC1)Nc1cc(Cl)ccc1Cl,"inconclusive: 31.6 µM [inhibitor, single point]",–
CCOC(=O)c1c(C)nc2sc3c(=O)n(-c4ccc(C(C)=O)cc4)cnc3c2c1-c1ccc(Cl)cc1,–,inactive: 16.4%
COc1ccc(NC(=O)c2ccc(-c3ccccc3)cc2)cc1NS(=O)(=O)c1ccc(F)cc1,"inconclusive: 7.94 µM [inhibitor, partial curve, poor fit]",–
Cc1ccc(CNC(=O)Cn2ccc3cc(S(=O)(=O)N4CCCCCC4)ccc32)cc1,–,inactive: -19.5%
S=C1NC(c2ccccc2)=CC(c2ccccc2)N1 (stereo not drawn),–,inactive: -4.86%
Cc1ccc(C(=O)Nc2ccc(-c3cn4cccnc4n3)cc2)cc1C,"inconclusive: 28.2 µM [inhibitor, single point]",–
CCCCNC(=S)N(C)/N=C/c1ccc(OCC(=O)Nc2c(C)cc(C)cc2C)c(OC)c1,–,inactive: -31.6%
O=C(Nc1ccc(-c2cn3ccccc3n2)cc1)c1cccs1,"inconclusive: 22.4 µM [inhibitor, single point]",–
Cc1c(-c2nsc(NC(=O)c3ccccc3)n2)nnn1-c1ccc(C(F)(F)F)c(Cl)c1,"inconclusive: 14.1 µM [inhibitor, partial curve, poor fit]",–
O=C(NNC(=O)c1ccc(Br)o1)c1ccc(NC(=O)c2ccccc2)cc1,"inconclusive: 1.68 µM [inhibitor, full curve]",–
Brc1ccc2oc3c(N4CCOCC4)ncnc3c2c1,–,inactive: 0.668%
Cc1ccc(S(=O)(=O)N2CCOCC2)cc1NC(=O)COc1ccccc1Cc1ccccc1,–,inactive: -15.3%
CCCCc1c(-c2ccccc2OC)ncn1CCc1cccc(OC)c1,"inconclusive: 25.1 µM [inhibitor, partial curve]",–
CCN(CC#CCC(O)(c1ccccc1)c1ccccc1)C(C)C,–,inactive: -6.24%
CN1C(=O)c2ccccc2Sc2ccc(NC(=O)c3ccccc3F)cc21,"inconclusive: 25.1 µM [inhibitor, single point]",–
COc1ccc(C2CC(=O)Nc3c2c(C)nn3-c2nncc(-c3ccc(C)cc3)n2)c(OC)c1OC (stereo not drawn),–,inactive: 6.03%
COC(=O)[C@@]1(Cc2ccc(F)cc2)[C@H]2c3cc(C(=O)N4CCCC4)n(Cc4ccccc4)c3C[C@H]2CN1C(=O)c1ccccc1,"inconclusive: 25.1 µM [inhibitor, single point]",–
NCc1cccc(CNc2ccc([N+](=O)[O-])cc2C(N)=O)c1,"inconclusive: 28.2 µM [inhibitor, partial curve, poor fit]",–

Compound,Potency,"activity change, negative = inhibition"
CCCc1nc2ccccc2c(=O)n1NC(=O)c1c(O)c2ccccc2n(C)c1=O,"inconclusive: 37.7 µM [inhibitor, single point]",–
COc1cccc(C=NNc2ccc([N+](=O)[O-])cn2)c1OC,"inconclusive: 12.6 µM [inhibitor, single point]",–
COC(=O)C1Cc2c([nH]c3ccccc23)CN1 (stereo not drawn),"inconclusive: 39.8 µM [inhibitor, partial curve, poor fit]",–
CC[n+]1c(/C=C/c2ccc(N(C)C)cc2)ccc2ccccc21,"inconclusive: 5.62 µM [inhibitor, full curve]",–
COc1ccc(C)c2sc(N(CCN(C)C)C(=O)c3ccc4ccccc4c3)nc12,–,inactive: -32.2%
Cc1ccc2onc(CNC(=O)N3CCN(c4cccc(C)c4C)CC3)c2c1,"inconclusive: 31.6 µM [inhibitor, single point]",–
Cc1ccc(OCCCC(=O)Nc2ccccc2C(F)(F)F)cc1,–,inactive: -20.1%
COc1ccc(N(CC(=O)N/N=C/c2cccs2)S(=O)(=O)c2ccccc2)cc1,"inconclusive: 0.015 µM [inhibitor, partial curve, poor fit]",–
CCN1C(=O)C(CC(=O)Nc2ccc(Br)cc2)N(CCCc2ccccc2)C1=S (stereo not drawn),"inconclusive: 37.7 µM [inhibitor, single point]",–
COc1cc(NC(=O)c2ccc(C)cc2)ccc1NC(=O)c1cc2ccccc2o1,"inconclusive: 2.82 µM [inhibitor, partial curve, poor fit]",–
O=C(O)CCCC[C@@H]1SC[C@@H]2NC(=O)N[C@@H]21,inactive,–
CCn1c(SCC(=O)N2c3ccccc3CCc3ccccc32)nnc1-c1ccc(OC)cc1,"inconclusive: 6.31 µM [inhibitor, single point]",–
COc1ccc(C(=O)/C=C/c2ccc(OC3CSC3)cc2)cc1OC,"inconclusive: 21.2 µM [inhibitor, partial curve, poor fit]",–
C=C1CC2(CC(c3ccccc3)OC(c3ccccc3)C2)OC1=O (stereo not drawn),"inconclusive: 39.8 µM [inhibitor, single point]",–
Cc1cc(C)c(S(=O)(=O)Nc2ccc3c(c2)CCC3)c(C)c1,"inconclusive: 37.7 µM [inhibitor, single point]",–
COc1cc(OC)c(OC)cc1/C=C1\CCC/C(=C\c2cc(OC)c(OC)cc2OC)C1=O,"inconclusive: 20 µM [inhibitor, partial curve, poor fit]",–
O=C(Nc1ccc(Cl)c(S(=O)(=O)N2CCCCC2)c1)c1ccco1,–,inactive: -24.3%
Cc1nc(N)nc(N)c1CCCc1ccc(Cl)c(Cl)c1,"inconclusive: 20 µM [inhibitor, single point]",–
Cc1cccc(NC(=S)N/N=C/c2cccc([N+](=O)[O-])c2)c1,–,inactive: -4.2%
CN(C)Cc1ncccc1Oc1nc2cc(-c3cccc(Cl)c3)sc2c(=O)n1C,–,inactive: -26.2%
CC(=O)N1CCc2cc(S(=O)(=O)CCC(=O)N3CCN(c4cccc(C)c4C)CC3)ccc21,–,inactive: -2.87%
